Measurements reported in PubChem BioAssay (EPA / NIEHS).
For part of these data: Shown are results outside the selection of hits, which stands elsewhere. Results filed as inconclusive are left out. This is a selection; strong and weak results do not stand in their true shares. Where a structure was tested more than once in an assay, its records may differ in their call. Active and inactive are the calls of the source. The calls were made as follows, unless noted: active = hit-call score of the fitted dose curve at least 0.9, where 1 is the maximum; inactive = score below 0.9.

What was measured:
[1] = read-out: Interleukin-6 (IL6), IL6 (gene 3569); assay: BSK_CASM3C_IL6: BioMAP Diversity Plus: CASM3C Assay for Interleukin-6 (IL6) Biomarker Activity for (AID 2283040); conditions: actives raise or lower the signal; primary human coronary artery smooth muscle cells
[2] = read-out: Monocyte Chemoattractant Protein-1 (MCP1), CCL2 (gene 6347); assay: BSK_LPS_MCP1: BioMAP Diversity Plus: LPS Assay for Monocyte Chemoattractant Protein-1 (MCP1) Biomarker Activity (AID 2283081); conditions: actives raise or lower the signal; primary human HUVEC with PBMC
Summary of the method: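 Secreted MCP-1 read by ELISA at 24 h post-dosing in an LPS-activated co-culture of endothelial cells with peripheral blood mononuclear cells. Fits run in both directions, DMSO as baseline; parallel SRB staining tracks overt cytotoxicity.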

CD38, CD38 (gene 952) = assay: BSK_SAg_CD38: BioMAP Diversity Plus: SAg Assay for CD38 Biomarker Activity (AID 2283087); conditions: actives raise or lower the signal; primary human HUVEC with PBMC
Summary of the method: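 Measures CD38 on a human endothelial/PBMC co-culture driven by SEB and TSST-1, 24 h after compound exposure, using ELISA with fluorescence detection; DMSO defines baseline for bidirectional curve fitting.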

[3] = read-out: E-selectin (Homo sapiens) (UniProt P16581); assay: BSK_SAg_Eselectin: BioMAP Diversity Plus: SAg Assay for Eselectin Biomarker Activity (AID 2283091); conditions: actives raise or lower the signal; primary human HUVEC with PBMC
Sequence of UniProt P16581 (P16581 whole entry, looked up): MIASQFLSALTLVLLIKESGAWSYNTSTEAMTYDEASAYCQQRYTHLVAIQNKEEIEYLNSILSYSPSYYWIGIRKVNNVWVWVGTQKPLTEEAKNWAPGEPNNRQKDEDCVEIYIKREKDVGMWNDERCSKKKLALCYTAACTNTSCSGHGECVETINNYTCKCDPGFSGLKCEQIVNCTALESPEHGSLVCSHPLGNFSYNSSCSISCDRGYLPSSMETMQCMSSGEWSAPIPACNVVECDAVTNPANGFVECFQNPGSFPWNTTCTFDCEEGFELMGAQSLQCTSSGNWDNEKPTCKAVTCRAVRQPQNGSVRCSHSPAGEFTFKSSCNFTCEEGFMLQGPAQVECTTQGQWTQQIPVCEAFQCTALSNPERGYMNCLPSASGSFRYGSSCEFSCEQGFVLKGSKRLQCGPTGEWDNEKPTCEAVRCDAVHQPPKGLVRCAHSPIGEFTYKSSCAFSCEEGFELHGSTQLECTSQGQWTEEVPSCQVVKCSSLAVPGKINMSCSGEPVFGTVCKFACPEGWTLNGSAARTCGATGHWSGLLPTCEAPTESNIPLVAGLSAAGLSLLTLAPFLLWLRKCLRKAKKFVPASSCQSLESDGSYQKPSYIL
Summary of the method: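 Cell-surface E-selectin is read by ELISA at 24 h in the SAg co-culture of HUVEC and PBMC. Curves are fitted in both directions relative to DMSO. Parallel SRB total-protein staining tracks overt toxicity.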

[4] = target: human CYP2C9, CYP2C9 (gene 1559) (UniProt P11712); assay: NVS_ADME_hCYP2C9: NovaScreen (NVS) CYP450-related Enzyme Activity (ADME) Assay for human CYP2C9 (AID 2283108; active = hit-call score of the fitted dose curve at least 0.9, where 1 is the maximum)
Sequence of UniProt P11712 (P11712 whole entry, looked up): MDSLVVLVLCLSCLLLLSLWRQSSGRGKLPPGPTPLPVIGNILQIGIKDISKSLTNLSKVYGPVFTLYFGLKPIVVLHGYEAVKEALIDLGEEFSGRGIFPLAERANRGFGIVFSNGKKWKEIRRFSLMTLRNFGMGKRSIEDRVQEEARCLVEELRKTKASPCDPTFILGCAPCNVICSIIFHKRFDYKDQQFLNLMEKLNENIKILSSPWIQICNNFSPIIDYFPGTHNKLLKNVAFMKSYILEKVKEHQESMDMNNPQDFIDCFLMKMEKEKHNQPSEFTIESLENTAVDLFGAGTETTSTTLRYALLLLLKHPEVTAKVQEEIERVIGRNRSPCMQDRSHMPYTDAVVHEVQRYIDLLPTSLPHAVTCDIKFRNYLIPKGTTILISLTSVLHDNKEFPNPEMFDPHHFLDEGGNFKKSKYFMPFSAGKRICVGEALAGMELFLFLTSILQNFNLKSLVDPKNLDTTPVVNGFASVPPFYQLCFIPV
Summary of the method: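 Cell-free assay of recombinant human CYP2C9 produced in Sf9 cells, with enzyme activity read by fluorescence intensity 0.75 h after compound addition. Loss of signal versus an acetonitrile negative control indicates inhibition. Primary screen used 10 uM in duplicate; actives were retested in concentration series.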

[5] = target: human Matrix Metalloproteinase-3 (MMP3), MMP3 (gene 4314) (UniProt P08254); assay: NVS_ENZ_hMMP3: NovaScreen (NVS) Enzymatic Assay for human Matrix Metalloproteinase-3 (MMP3) (AID 2283185; active = hit-call score of the fitted dose curve at least 0.9, where 1 is the maximum)
Sequence of UniProt P08254 (P08254 whole entry, looked up): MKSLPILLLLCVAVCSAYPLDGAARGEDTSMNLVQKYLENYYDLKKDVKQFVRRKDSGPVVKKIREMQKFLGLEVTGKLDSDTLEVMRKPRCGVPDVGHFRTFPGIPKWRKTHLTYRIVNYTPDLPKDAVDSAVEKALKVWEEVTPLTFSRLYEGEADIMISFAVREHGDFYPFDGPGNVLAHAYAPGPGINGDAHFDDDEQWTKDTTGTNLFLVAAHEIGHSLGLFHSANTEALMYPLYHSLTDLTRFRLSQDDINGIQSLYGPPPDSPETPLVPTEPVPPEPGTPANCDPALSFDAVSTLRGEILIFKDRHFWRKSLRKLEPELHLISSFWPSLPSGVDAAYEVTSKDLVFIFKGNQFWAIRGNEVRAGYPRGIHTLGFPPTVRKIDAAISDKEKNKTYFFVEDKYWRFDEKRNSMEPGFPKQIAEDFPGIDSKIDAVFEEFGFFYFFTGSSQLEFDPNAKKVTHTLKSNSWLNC
Protocol: NVS_ENZ_hMMP3 is a biochemical, single-readout assay that uses extracted gene-proteins in a cell-free assay. Measurements were taken 1 hour after chemical dosing in a 96-well plate.NVS_ENZ_hMMP3 is one of one assay component(s) measured or calculated from the NVS_ENZ_hMMP3 assay. It is designed to make measurements of enzyme activity, a form of enzyme reporter, as detected with fluorescence intensity signals by Fluorescence technology.Data from the assay component NVS_ENZ_hMMP3 was analyzed into 1 assay endpoint. This assay endpoint, NVS_ENZ_hMMP3, was analyzed in the positive analysis fitting direction relative to DMSO as the negative control and baseline of activity. […] Furthermore, this assay endpoint can be referred to as a primary readout, because this assay has produced multiple assay endpoints where this one serves a enzymatic activity function. […]
Binding assays used specific radioligands (tritiated, iodinated) with non-radioactive competitive displacement ligands in agonist or antagonist protocols (as indicated) and various reference compounds and inhibitors to titrate specific binding to receptors and transporters. Most enzyme assays (CYPs, kinases, phosphatases, proteases, HDACs) used recombinant protein and specific substrates (fluorescence mostly, some colorimetric and radioactive) and inhibitors, followed by a biochemical separation of substrate and product. […]

[6] = target: Retinoic acid receptor RXR-alpha (Homo sapiens) (UniProt P19793); assay: OT_NURR1_NURR1RXRa_0480: Odyssey Thera (OT) 8-hour HEK293T Protein Complementation Assay for Nurr1/retinoid X receptor (RXR) (AID 2283385; active = hit-call score of the fitted dose curve at least 0.9, where 1 is the maximum)
Sequence of UniProt P19793 (P19793 whole entry, looked up, the tested form may be a part): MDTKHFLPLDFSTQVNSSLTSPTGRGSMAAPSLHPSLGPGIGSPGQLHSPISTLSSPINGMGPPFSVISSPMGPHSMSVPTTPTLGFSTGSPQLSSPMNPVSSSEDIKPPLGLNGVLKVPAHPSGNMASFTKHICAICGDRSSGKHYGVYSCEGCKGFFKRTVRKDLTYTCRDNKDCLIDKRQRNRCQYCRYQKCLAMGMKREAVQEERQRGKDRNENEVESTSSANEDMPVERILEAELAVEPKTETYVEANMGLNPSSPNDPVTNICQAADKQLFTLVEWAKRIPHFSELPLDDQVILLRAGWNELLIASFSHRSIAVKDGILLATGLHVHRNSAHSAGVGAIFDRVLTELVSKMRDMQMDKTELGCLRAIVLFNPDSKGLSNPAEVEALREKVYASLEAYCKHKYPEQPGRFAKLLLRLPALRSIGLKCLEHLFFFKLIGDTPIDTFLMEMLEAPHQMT
Summary of the method: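 Read-out: fluorescence from protein-fragment complementation between Nurr1 and RXRα in human HEK293T cells, 8 h after dosing. DMSO served as negative control; increased signal counted as activity.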

[7] = read-out: Glutamate-cysteine ligase catalytic (GCLC), GCLC (gene 2729); assay: LTEA_HepaRG_GCLC: Life Technologies and Expression Analysis (LTEA) Assay for Glutamate-cysteine ligase catalytic (GCLC) using HepaRG (AID 2283498); conditions: actives raise or lower the signal; mRNA level, 48 h
Summary of the method: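 Oxidative-stress marker GCLC is measured as mRNA change in human HepaRG liver cells after 48 h chemical treatment in 0.5% DMSO, eight concentrations from 100 uM. Activity is fitted bidirectionally against vehicle.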

[8] = TOX21_p53_BLA_p3_viability: Viability Assessment in the Tox21 HCT-116 p53 Agonism Beta-lactamase Assay, Phase 3 (AID 2283593; active = hit-call score of the fitted dose curve at least 0.9, where 1 is the maximum;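 also: cells exposed to compound for 16 h before reading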)
Summary of the method: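 HCT-116 cells (4000/well) rested 5 h at 37C, then got DMSO compounds by pin tool (217-fold dilution) for 16 h at 37C, 5% CO2. After the bla read, CellTiter-Glo was added and luminescence read at 30 min, room temperature.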

[9] = BSK_BE3C_SRB: Viability Assessment in the BioMAP Diversity Plus: BE3C Assay (AID 2283028); conditions: primary human bronchial epithelial cells;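 also: measured 24 h after chemical dosing; fitted both ways so AC50 may mark signal gain or loss versus DMSO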
Summary of the method: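 Cytotoxicity read-out: SRB (0.1%) staining of TCA-fixed (10%) human lung bronchial epithelial cells, absorbance 560 nm, 24 h post-dosing. Curves fitted both directions relative to DMSO.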

[10] = target: Bile acid receptor (Homo sapiens) (UniProt Q96RI1); assay: OT_FXR_FXRSRC1_0480: Odyssey Thera (OT) 8-hour HEK293T Protein-Complementation Assay for Farnesoid X receptor/SRC-1 Co-activator (AID 2283383; active = hit-call score of the fitted dose curve at least 0.9, where 1 is the maximum)
Sequence of UniProt Q96RI1 (Q96RI1 whole entry, looked up, the tested form may be a part): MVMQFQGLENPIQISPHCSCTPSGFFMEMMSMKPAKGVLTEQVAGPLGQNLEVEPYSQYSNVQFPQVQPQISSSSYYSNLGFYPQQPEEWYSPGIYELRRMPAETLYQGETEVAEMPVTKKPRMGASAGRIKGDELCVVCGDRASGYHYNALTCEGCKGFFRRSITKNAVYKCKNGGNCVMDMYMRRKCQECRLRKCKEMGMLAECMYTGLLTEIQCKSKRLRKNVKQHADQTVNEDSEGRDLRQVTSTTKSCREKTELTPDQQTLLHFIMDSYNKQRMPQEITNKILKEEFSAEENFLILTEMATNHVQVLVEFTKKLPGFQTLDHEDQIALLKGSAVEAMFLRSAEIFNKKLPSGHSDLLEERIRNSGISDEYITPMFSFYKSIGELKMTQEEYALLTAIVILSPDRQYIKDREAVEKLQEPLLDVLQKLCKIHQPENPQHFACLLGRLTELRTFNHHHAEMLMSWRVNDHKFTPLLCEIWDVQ
Summary of the method: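 Fluorescence intensity read-out, 8 h post-dose, HEK293T protein-fragment complementation; FXR bait and SRC-1 prey each linked to reporter fragments. Activity scored as signal increase over DMSO negative control.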

[11] = ACEA_AR_agonist_AUC_viability: ACEA Biosciences xCELLigence Real-Time Cell Analysis on Androgen Receptor Agonism for Viability (AID 2283775; active = hit-call score of the fitted dose curve at least 0.9, where 1 is the maximum;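 also: viability read 80 hours after compound addition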)
Summary of the method: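 Viability endpoint from xCELLigence impedance in 22Rv1 prostate cells at 80 h. Eight-point series, 100 uM maximum final.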

[12] = read-out: Macrophage colony-stimulating factor (MCSF), CSF1 (gene 1435); assay: BSK_CASM3C_MCSF: BioMAP Diversity Plus: CASM3C Assay for Macrophage colony-stimulating factor (MCSF) Biomarker Activity (AID 2283044); conditions: actives raise or lower the signal; primary human coronary artery smooth muscle cells;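 also: M-CSF protein amount quantified by ELISA after 24 h exposure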
[13] = BSK_CASM3C_Proliferation: Cell Proliferation Assessment in the BioMAP Diversity Plus: CASM3C Assay (AID 2283047); conditions: primary human coronary artery smooth muscle cells;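 also: sulforhodamine B total protein stain as relative cell number at 560 nm; sub-confluent cells exposed 48 h before staining; fitted both ways against DMSO so gain or loss of cell number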
[14] = read-out: cysteine-aspartic acid protease (CASP8), CASP8 (gene 841); assay: LTEA_HepaRG_CASP8: Life Technologies and Expression Analysis (LTEA) Assay for cysteine-aspartic acid protease (CASP8) using HepaRG (AID 2283480); conditions: actives raise or lower the signal; mRNA level, 48 h
Summary of the method: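 Concentration-response in duplicate up to 100 uM (half-log steps, 0.5% DMSO) on differentiated HepaRG cultures for 48 h. Expression change of CASP8 mRNA is determined by TaqMan qRT-PCR with housekeeping-gene normalization.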

[15] = read-out: matrix metalloproteinase-10 (MMP10), MMP10 (gene 4319); assay: LTEA_HepaRG_MMP10: Life Technologies and Expression Analysis (LTEA) Assay for matrix metalloproteinase-10 (MMP10) using HepaRG (AID 2283517); conditions: actives raise or lower the signal; mRNA level, 48 h
Summary of the method: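 In differentiated HepaRG cultures kept in 0.5% DMSO, test chemicals act for 48 h over an eight-point range with a top dose of 100 uM. Expression is then quantified by TaqMan RT-PCR against ACTB, GAPDH and POLR2A.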

Measured: AC50

COc1cc(-c2ccc(N)c(OC)c2)ccc1N
inactive: [1] | [2] | CD38, CD38 (gene 952) | [6] | [8]
active: [3] 2.93 µM | [4] 4.3 µM | [5] 12.1 µM | [6] 19.8 µM | [7] 73 µM

CC(C)(C)C(O)/C(=C\c1ccc(Cl)cc1Cl)n1cncn1 (stereo not drawn)
active: [9] 29.4 µM | [10] 11.7 µM | [11] 25.6 µM

O=C(O)C1C2CCC(O2)C1C(=O)O (stereo not drawn)
active: [12] 10.1 µM | [13] 17.1 µM | [11] 47 µM
inactive: [14] | [15]
